Measured values published in publication PMC2841195.
These are yes or no findings as the source states them, for the method shown. For part of these data: Binding seen in cells or lysates may run through a third protein. Some results given as binding are weak or reduced against the parent protein; the word gives no strength. For part of these data: Where a sequence is shown, tags or fusion partners need not be part of it. One block for each binder: values may come before it.

Amino acid sequences for entries named in this document (tags omitted). A change or cut given only in a name is not applied to a line headed by its entry. Chains listed by the source or under a name are the forms on record and can include a tag or linker. Residues count along the entry.
UniProt P35372: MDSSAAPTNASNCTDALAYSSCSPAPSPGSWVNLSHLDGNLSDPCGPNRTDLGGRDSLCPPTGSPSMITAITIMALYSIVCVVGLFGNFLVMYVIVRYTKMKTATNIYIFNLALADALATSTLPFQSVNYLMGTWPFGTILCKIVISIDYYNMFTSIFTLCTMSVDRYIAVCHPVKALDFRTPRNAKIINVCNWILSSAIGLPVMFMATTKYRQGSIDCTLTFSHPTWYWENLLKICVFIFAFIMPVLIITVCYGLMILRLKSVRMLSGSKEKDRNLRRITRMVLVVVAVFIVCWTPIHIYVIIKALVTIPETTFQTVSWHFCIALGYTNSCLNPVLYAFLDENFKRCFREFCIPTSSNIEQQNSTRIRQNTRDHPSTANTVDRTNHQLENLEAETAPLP
MORIL2-GST fusion protein (amino acids 166-187 of the human MOR fused to GST): residues 166-187 of P35372
MOR third intracellular loop (IL3, residues 260-282), GAL4 DNA-binding domain fusion: residues 260-282 of P35372
MOR C-terminal domain (C-tail, residues 342-400), GAL4 DNA-binding domain fusion: residues 342-400 of P35372
UniProt P33535: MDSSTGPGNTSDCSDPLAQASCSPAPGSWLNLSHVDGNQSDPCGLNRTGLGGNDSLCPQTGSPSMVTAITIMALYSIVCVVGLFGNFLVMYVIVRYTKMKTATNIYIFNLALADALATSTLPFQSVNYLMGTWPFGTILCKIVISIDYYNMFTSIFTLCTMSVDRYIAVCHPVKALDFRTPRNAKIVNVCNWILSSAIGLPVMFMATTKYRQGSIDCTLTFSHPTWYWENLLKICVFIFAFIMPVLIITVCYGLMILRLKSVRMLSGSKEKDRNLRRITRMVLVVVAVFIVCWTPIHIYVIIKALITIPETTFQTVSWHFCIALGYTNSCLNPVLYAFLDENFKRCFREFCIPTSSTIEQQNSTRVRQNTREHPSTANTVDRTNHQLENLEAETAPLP
UniProt P14416: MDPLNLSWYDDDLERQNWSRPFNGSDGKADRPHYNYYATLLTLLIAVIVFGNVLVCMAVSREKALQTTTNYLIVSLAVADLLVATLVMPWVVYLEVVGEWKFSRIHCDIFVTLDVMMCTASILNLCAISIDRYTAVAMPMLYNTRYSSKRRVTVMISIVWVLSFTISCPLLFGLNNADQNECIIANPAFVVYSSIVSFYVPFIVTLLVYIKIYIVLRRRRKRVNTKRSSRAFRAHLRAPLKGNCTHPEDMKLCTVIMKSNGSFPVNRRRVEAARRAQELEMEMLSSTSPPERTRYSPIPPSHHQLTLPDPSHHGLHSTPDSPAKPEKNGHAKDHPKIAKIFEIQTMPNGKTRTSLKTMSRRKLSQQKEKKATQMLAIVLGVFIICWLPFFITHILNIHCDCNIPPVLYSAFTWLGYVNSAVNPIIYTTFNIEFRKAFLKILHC

What was measured:
[1] = biological target: mu-opioid receptor (MOR), full-length human, split-ubiquitin bait (human) (UniProt P35372); experiment: two-hybrid; modified split-ubiquitin membrane yeast two-hybrid (MYTH) screen; full-length human MOR as bait (pCCW-STE), human fetal brain cDNA library as prey (pPR3-N), S. cerevisiae THY.AP4, SD -Trp/-Leu/-His/-Ade with 3AT
[2] = biological target: MOR C-terminal domain (C-tail, residues 342-400), GAL4 DNA-binding domain fusion (human) (UniProt P35372); experiment: two-hybrid; directed conventional Y2H; MOR intracellular domains in GAL4 DNA-binding domain vector pAS2-1, GPR177-CT in GAL4 activation domain vector pACT2, S. cerevisiae MAV103, beta-galactosidase filter lift
[3] = biological target: MOR first intracellular loop (IL1, residues 97-103), GAL4 DNA-binding domain fusion (human) (UniProt P35372); experiment: as above
[4] = biological target: MOR second intracellular loop (IL2, residues 166-187), GAL4 DNA-binding domain fusion (human) (UniProt P35372); experiment: as above
[5] = biological target: MOR third intracellular loop (IL3, residues 260-282), GAL4 DNA-binding domain fusion (human) (UniProt P35372); experiment: as above
[6] = biological target: MORIL2-GST fusion protein (amino acids 166-187 of the human MOR fused to GST) (human) (UniProt P35372); experiment: pull-down; MORIL2-GST fusion protein (or GST-coated beads) incubated with bacterial lysate holding S-tagged GPR177 fragment; blot with HRP-conjugated S-tag antibody; only the target purified
[7] = biological target: MOR, endogenously expressed in PC12 cells and rat brain (rat (endogenous in PC12 cells and rat brain)) (UniProt P33535); experiment: co-IP; PC12 cell lysate, endogenous proteins, precipitated with anti-MOR antibodies, blot with anti-GPR177
[8] = biological target: MOR, endogenously expressed in PC12 cells and rat brain (rat (endogenous in PC12 cells and rat brain)) (UniProt P33535); experiment: co-IP; total rat brain lysate, endogenous proteins, precipitated with anti-MOR antibodies, blot with anti-GPR177
[9] = biological target: FLAG-tagged D2 dopamine receptor stably expressed in HEK293 cells (293-D2R cells) (UniProt P14416); experiment: co-IP; lysates of 293-MOR or 293-D2R cells precipitated with anti-FLAG antibodies, blot with anti-GPR177 for the endogenous protein

B1: GPR177 C-terminal domain (residues 451-541), split-ubiquitin prey clone (domain or fragment, UniProt Q5T9L3 451-541)
chain: IVSQVTEGHWKWGGVTVQVNSAFFTGIYGMWNLYVFALMFLYAPSHKNYGEDQSNGDLGVHSGEELQLTTTITHVDGPTEIYKLTRKEAQE
binding [1]: binds

B4: GPR177, endogenously expressed in PC12 cells and rat brain (protein, UniProt Q6P689 1-541)
chain: MAGAIIENMSTKKLCIVGGILLVFQIVAFLVGGLIAPAPTTAVSYVAAKCVDVRKNHHKTRWLMPWGPNKCNKINDFEEAIPREIEANDIVFSVHIPLPSMEMSPWFQFMLFILQIDIAFKLNNQIRENAEVSMDVSLGYRDDMFSEWTEMAHERVPRKLRCTFTSPKTPEHEGRHYECDVLPFMEIGSVAHKYYLLNIRLPVNEKKKINVGIGEIKDIRLVGIHQNGGFTKVWFAMKTFLTPSIFIIMVWYWRRITMMSRPPVLLEKVIFALGISMTFINIPVEWFSIGFDWTWMLLFGDIRQGIFYAMLLSFWIIFCGEHMMDQHERNHIAGYWKQVGPIAVGSFCLFIFDMCERGVQLTNPFYSIWTTDVGTELAMAFIIVAGICLCLYFLFLCFMVFQVFRNISGKQSSLPAMSKVRRLHYEGLIFRFKFLMLITLACAAMTVIFFIVSQVTEGHWKWGGVTVQVSSAFFTGIYGMWNLYVFALMFLYAPSHKNYGEDQSNGDLGVHSGEELQLTTTITHVDGPTEIYKLTRKEAQE
binding [7]: binds
binding [8]: binds

B5: GPR177, endogenously expressed in HEK293-derived cells (protein, UniProt Q5T9L3 1-541)
chain: MAGAIIENMSTKKLCIVGGILLVFQIIAFLVGGLIAPGPTTAVSYMSVKCVDARKNHHKTKWFVPWGPNHCDKIRDIEEAIPREIEANDIVFSVHIPLPHMEMSPWFQFMLFILQLDIAFKLNNQIRENAEVSMDVSLAYRDDAFAEWTEMAHERVPRKLKCTFTSPKTPEHEGRYYECDVLPFMEIGSVAHKFYLLNIRLPVNEKKKINVGIGEIKDIRLVGIHQNGGFTKVWFAMKTFLTPSIFIIMVWYWRRITMMSRPPVLLEKVIFALGISMTFINIPVEWFSIGFDWTWMLLFGDIRQGIFYAMLLSFWIIFCGEHMMDQHERNHIAGYWKQVGPIAVGSFCLFIFDMCERGVQLTNPFYSIWTTDIGTELAMAFIIVAGICLCLYFLFLCFMVFQVFRNISGKQSSLPAMSKVRRLHYEGLIFRFKFLMLITLACAAMTVIFFIVSQVTEGHWKWGGVTVQVNSAFFTGIYGMWNLYVFALMFLYAPSHKNYGEDQSNGDLGVHSGEELQLTTTITHVDGPTEIYKLTRKEAQE
binding [9]: no binding

Now from value to binder:

binding [2]: no binding
binding [3]: no binding
binding [4]: binds
binding [5]: no binding
B2: GPR177-CT (residues 451-541) in the GAL4 activation domain vector pACT2 (domain or fragment, UniProt Q5T9L3 451-541)
chain: IVSQVTEGHWKWGGVTVQVNSAFFTGIYGMWNLYVFALMFLYAPSHKNYGEDQSNGDLGVHSGEELQLTTTITHVDGPTEIYKLTRKEAQE

binding [6]: binds
B3: S-tagged GPR177 C-terminal fragment (residues 451-541) (domain or fragment, UniProt Q5T9L3 451-541)
chain: IVSQVTEGHWKWGGVTVQVNSAFFTGIYGMWNLYVFALMFLYAPSHKNYGEDQSNGDLGVHSGEELQLTTTITHVDGPTEIYKLTRKEAQE
